Screen size: about 39,000 compounds; about 220 (0.56%) showed activity. Some of the results follow.
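Further: static incubation at 37 °C against the wild-type strain, values averaged over two biological replicates.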

The assay concerns Escherichia coli K-12 BW25113. In words: relative growth (OD600 normalised to plate interquartile mean) (fraction); higher = less growth inhibition, active = 0.2 or less. The settings on record: 50 µM; LB; incubation time: overnight (16-24 h).
For `C[C@H]1CN([C@@H](C)CO)C(=O)c2cc(NS(=O)(=O)c3cn(C)cn3)ccc2O[C@@H]1CN(C)S(=O)(=O)c1cn(C)cn1`, the relative growth is inactive: 0.985.

As to `C[C@H](CO)N1C[C@H](C)[C@@H](CN(C)S(=O)(=O)c2cn(C)cn2)Oc2ccc(NS(=O)(=O)c3ccc(F)cc3)cc2C1=O`, the relative growth was inactive: 0.982.

`COc1ccc(S(=O)(=O)N(C)C[C@H]2OCCCC[C@@H](C)Oc3ccc(NC(=O)C4CCCCC4)cc3C(=O)N([C@@H](C)CO)C[C@H]2C)cc1`: the relative growth was inactive: 1.05.

In the case of `C=CCC[C@@H](Cc1ccc(F)cc1)C(=O)OC[C@@H](NC(=O)[C@@H](CC=C)CC(=O)N[C@@H](CO)Cc1ccccc1)C(C)(C)C`, the relative growth was inactive: 0.987.

Consider `C[C@H]1CN([C@@H](C)CO)C(=O)c2cc(NC(=O)CCC(F)(F)F)ccc2O[C@H]1CN(C)Cc1ccc(-c2ccccc2)cc1`, for which the relative growth is inactive: 0.961.

On to `C[C@@H]1CN([C@@H](C)CO)C(=O)c2cc(Br)cnc2O[C@H]1CN(C)Cc1cccc(C(=O)O)c1`, for which the relative growth was inactive: 1.01.

`COc1cc2c3cc1Oc1cc(ccc1O)C[C@@H]1c4c(cc(OC)c(O)c4Oc4ccc(cc4)C[C@@H]3N(C)CC2)CC[N+]1(C)C`: the relative growth was inactive: 1.03.

`Cc1ncc([N+](=O)[O-])n1CC(C)O` (configuration not stated): the relative growth is inactive: 0.999.

Turning to `COc1ccc(S(=O)(=O)Nc2ccc3c(c2)C(=O)N([C@H](C)CO)C[C@@H](C)[C@H](CN(C)Cc2ccc(Cl)c(Cl)c2)OCCCC[C@@H](C)O3)cc1`, the relative growth is inactive: 0.971.

With `C[C@H](CO)N1C[C@H](C)[C@H](CN(C)S(=O)(=O)c2cccs2)Oc2ccc(NC(=O)Nc3cccc4ccccc34)cc2CC1=O`, the relative growth was inactive: 0.999.

Regarding `CO[C@@H]1CN(C)C(=O)c2cc(NC(=O)CC(F)(F)F)ccc2OC[C@@H](C)N(C(=O)C2CCOCC2)C[C@H]1C`, the relative growth is inactive: 0.998.

On to `CCCCc1oc2ccccc2c1C(=O)c1cc(I)c(OCCN(CC)CC)c(I)c1.Cl`, for which the relative growth is inactive: 0.919.

With `C[C@@H]1CCCCO[C@H](CN(C)S(=O)(=O)c2ccc(Cl)cc2)[C@H](C)CN([C@@H](C)CO)C(=O)c2cc(NS(=O)(=O)c3ccccc3)ccc2O1`, the relative growth was inactive: 1.02.

Turning to `COc1cc(N2CCC(O)CC2)ccc1Nc1cc(Nc2ccccc2S(=O)(=O)C(C)C)c2cc[nH]c2n1`, the relative growth is inactive: 1.03.

Consider `COc1ccc(NC(=O)Nc2ccc3c(c2)C(=O)N([C@@H](C)CO)C[C@@H](C)[C@@H](CN(C)Cc2ccc(Cl)c(Cl)c2)O3)cc1`, for which the relative growth is inactive: 1.01.

Regarding `C[C@H]1CN([C@@H](C)CO)C(=O)c2cccc(NS(=O)(=O)c3ccc(F)cc3)c2O[C@H]1CN(C)Cc1ccc(Cl)c(Cl)c1`, the relative growth is inactive: 0.996.

Turning to `CNC[C@@H]1OCCCC[C@H](C)Oc2ccc(NS(=O)(=O)c3c(C)noc3C)cc2C(=O)N([C@@H](C)CO)C[C@H]1C`, the relative growth is inactive: 0.994.

Take `C[C@@H]1CN([C@H](C)CO)C(=O)c2cc(NS(=O)(=O)c3cccs3)ccc2O[C@@H](C)CCCCO[C@@H]1CN(C)Cc1ccc(Cl)c(Cl)c1`: the relative growth was inactive: 0.998.

With `C[C@H](CO)N1C[C@H](C)[C@@H](CN(C)C(=O)Nc2ccc(F)cc2)OCc2ccccc2-c2c(n(C)c3ccccc23)C1=O`, the relative growth was inactive: 0.917.

With `C[C@H](CO)N1C[C@H](C)[C@@H](CN(C)Cc2ccc(-c3ccccc3)cc2)Oc2c(NC(=O)C3CCOCC3)cccc2C1=O`, the relative growth was inactive: 1.03.

Consider `O=C(COC(=O)/C=C/c1cn(-c2ccccc2)nc1-c1ccc2c(c1)OCCO2)N[C@H]1CCS(=O)(=O)C1`, for which the relative growth is inactive: 0.998.

With `COCCOC(=O)N1C(=O)[C@@]2(c3cc(C#Cc4ccc(OC)cc4)ccc31)[C@H](C(=O)N1CCc3cc(OC)c(OC)cc3C1)[C@H]1C(=O)O[C@H](c3ccccc3)[C@H](c3ccccc3)N1[C@@H]2c1ccc(O)cc1`, the relative growth was inactive: 1.04.

As to `C[C@H](CO)N1C[C@H](C)[C@@H](CN(C)C(=O)Nc2ccc(F)cc2)Oc2ccc(NC(=O)CCN3CCOCC3)cc2CC1=O`, the relative growth was inactive: 0.991.

Consider `C[C@@H]1CCCCO[C@H](CN(C)C(=O)c2ccccc2)[C@@H](C)CN([C@H](C)CO)C(=O)c2cc(NC(=O)CCC(F)(F)F)ccc2O1`, for which the relative growth was inactive: 0.989.

As to `CCS(=O)(=O)Nc1ccc2c(c1)C(=O)N(C)[C@@H]1CC[C@@H](CC(=O)N[C@@H]3CCN(Cc4ccccc4)C3)O[C@@H]1CO2`, the relative growth was inactive: 1.01.

Turning to `COc1ccc(NC(=O)N(C)C[C@H]2Oc3c(NC(=O)Nc4ccc(C(F)(F)F)cc4)cccc3C(=O)N([C@@H](C)CO)C[C@@H]2C)cc1`, the relative growth was inactive: 0.806.

For `COc1ccc(S(=O)(=O)Nc2ccc3c(c2)C(=O)N([C@@H](C)CO)C[C@@H](C)[C@@H](CN(C)Cc2ccc(-c4ccccc4)cc2)O3)cc1`, the relative growth was inactive: 1.05.

With `C=CCOC(=O)O[C@H]1[C@@H](OC)O[C@H](COC(=O)NCCCCCC(=O)NO)[C@H]2OC(=O)[C@@H](Cc3cccc(Br)c3)C/C=C/C[C@H](Cc3ccccc3)C(=O)O[C@H]12`, the relative growth was inactive: 0.986.

As for `Cl.O=C1CC2(CCCC2)CC(=O)N1CCCCN1CCN(c2ncccn2)CC1`, the relative growth is active: 0.0493.

With `CN1CCCN=C1C=Cc1cccc(O)c1.O=C(O)c1cc2ccccc2c(Cc2c(O)c(C(=O)O)cc3ccccc23)c1O`, the relative growth was inactive: 1.1.

For the molecule `CC(C)(C)[S@@](=O)N1Cc2cc(C(=O)N3CCCCC3)nc(-c3cccc(-c4ccc(F)cc4)c3)c2[C@H]1CCO`, the relative growth is inactive: 0.977.

For the molecule `C[C@@H]1CN([C@@H](C)CO)C(=O)c2cc(NS(C)(=O)=O)ccc2O[C@H]1CN(C)Cc1ccc(C(F)(F)F)cc1`, the relative growth was inactive: 0.973.

Regarding `CCN(CC)c1nc(C#N)nc(OC)n1`, the relative growth is inactive: 0.98.

Regarding `COc1cccc(S(=O)(=O)N[C@@H]2C=C[C@H](CC(=O)NC3CCC3)O[C@H]2CO)c1`, the relative growth is inactive: 0.989.

In the case of `O=C1CCOC1`, the relative growth is inactive: 0.985.

On to `CC(C)NC(=O)N(C)C[C@@H]1OCCCC[C@@H](C)Oc2ccc(NS(C)(=O)=O)cc2C(=O)N([C@H](C)CO)C[C@H]1C`, for which the relative growth is inactive: 1.

For `C[C@H](CO)N1C[C@H](C)[C@H](CN(C)C(=O)Nc2ccccc2)OCCCC[C@H](C)Oc2ccc(NC(=O)Nc3ccc4c(c3)OCO4)cc2C1=O`, the relative growth was inactive: 0.995.

Values taken from the supplement of paper PMC9446081.
